Laboratory results reported in PubChem BioAssay AID1768 (National Center for Advancing Translational Sciences (NCATS), 2009).
“And” between values parts separate entries of the source, which are not always exact repeats. Equal values may be shown once. Hit rate of the full screen: of about 270,000 compounds, about 620 (0.23%) were called active. This list was built around the results that the source calls inconclusive (neither active nor inactive); the mix of calls is not that of the screen. Calls come from the whole dose curve; as a rule, active = well fitted inhibition curve with a large enough effect in the polarisation, with a control signal flat (not every such curve was filed as active); inconclusive = small, poorly fitted or top-dose-only effect, or effect the other way, or a change in a side signal; inactive = no such curve, though single readings can be large or run the other way; the % refers to the polarisation. Where the call is inconclusive, the potency comes from a doubtful curve fit. A note “side channel” means that the fit belongs to a control or component signal, not to the main read-out.

target: Menin (Homo sapiens) (UniProt O00255); assay: qHTS Assay for Inhibitors Targeting the Menin-MLL Interaction in MLL Related Leukemias: Competition With Texas Red Labeled MLL-derived Mutant Peptide; conditions: fluorescence polarization; series mostly up to 61.6 µM
UniProt O00255, sequence (O00255 whole entry, looked up): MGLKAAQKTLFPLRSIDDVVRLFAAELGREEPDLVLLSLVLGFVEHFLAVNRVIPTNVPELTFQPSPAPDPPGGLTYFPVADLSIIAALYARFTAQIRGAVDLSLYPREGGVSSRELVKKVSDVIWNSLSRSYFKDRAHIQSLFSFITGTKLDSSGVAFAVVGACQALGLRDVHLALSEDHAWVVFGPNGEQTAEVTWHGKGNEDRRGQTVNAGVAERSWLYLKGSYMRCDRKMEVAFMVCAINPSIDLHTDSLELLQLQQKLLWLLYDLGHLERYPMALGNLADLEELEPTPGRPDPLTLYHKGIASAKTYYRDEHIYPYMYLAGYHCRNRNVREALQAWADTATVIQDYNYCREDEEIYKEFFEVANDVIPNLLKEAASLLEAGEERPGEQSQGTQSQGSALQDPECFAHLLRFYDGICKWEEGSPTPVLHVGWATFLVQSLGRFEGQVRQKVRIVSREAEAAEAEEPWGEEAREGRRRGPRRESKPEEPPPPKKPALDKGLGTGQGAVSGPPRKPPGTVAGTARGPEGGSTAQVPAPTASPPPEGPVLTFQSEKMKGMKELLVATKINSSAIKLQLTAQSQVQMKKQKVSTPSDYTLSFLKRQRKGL
Potency is the fitted concentration of half-maximal effect; tags give direction and shape of the fitted curve or compound fluorescence and quenching.

Potency, inactive:
COc1cccc(CNCCO)c1OCc1ccc(Cl)cc1
COC(=O)C(C)CCCC(C)CCCC(C)CCCC(C)C (configuration not stated)
COc1cc(/C=N/NC(=O)c2ccncc2)ccc1OC(=O)c1ccc([N+](=O)[O-])cc1
N=c1n(Cc2ccc(Cl)cc2)c2ccccc2n1CC(O)COc1ccccc1 (configuration not stated)
OCCN(CCO)CC(O)COc1ccc2c(c1)OCO2 (configuration not stated)
COc1cccc(-c2noc(C3CCCN(C(=O)CC(C)(C)C)C3)n2)c1 (configuration not stated)
COc1ccc(S(=O)(=O)N2c3ccc(Cl)cc3[C@](O)(c3ccccc3Cl)[C@@H]2C(=O)N2CCC[C@H]2C(N)=O)cc1OC

Potency, inconclusive:
COc1cc(/C=N/NC(=O)c2cccc(NC(=O)c3ccccc3)c2)ccc1O 17.8 µM [quencher, side channel, single point]
CCn1c(SCC(=O)N2CCC(C)CC2)nc2c(c1=O)SCC2 3.55 µM [inhibitor, full curve]
CC(C)c1cc(C(=O)N/N=C/C(Br)=C/c2ccccc2)n[nH]1 17.8 µM [quencher, side channel, partial curve]
Cc1cc(C(=O)N/N=C/c2c(C)[nH]n(-c3ccccc3)c2=O)n[nH]1 25.1 µM [quencher, side channel, partial curve]
CC(=O)Cn1nnc2sc(-c3ccccc3)cc2c1=O 28.2 µM [quencher, side channel, partial curve]
CCOC(=O)C1=C(C)N(C)C(=O)NC1c1c(O)ccc2ccccc12 (configuration not stated) 0.631 µM [inhibitor, partial curve, poor fit]
Oc1c(C2=NCCNC(C(F)(F)F)=C2)ccc2ccccc12 20 µM [quencher, side channel, partial curve]
CCOC(=O)c1ccc2nc(CCC(=O)N[C@H](C(=O)OC)C(C)C)c(=O)n(CC)c2c1 14.1 µM [fluorescent, side channel, partial curve]
Cc1ccc(N2C(=O)S/C(=C/c3cn(C)c4ccccc34)C2=O)cc1 39.8 µM [inhibitor, single point]
CCc1cc2c(NCCC(=O)O)ncnc2s1 4.47 µM [inhibitor, full curve, poor fit]
O=C(O)c1cc(S(=O)(=O)Nc2cccc3ccccc23)c(Cl)cc1Cl 31.6 µM [quencher, side channel, single point]
CCOC(=O)/C=C(/C)N1N=C(c2ccc(OC)cc2)CC1c1cccc([N+](=O)[O-])c1 (configuration not stated) 39.8 µM [quencher, side channel, single point]
O=C(C1CCCN(S(=O)(=O)c2cccc3nsnc23)C1)N1CCN(c2ccccn2)CC1 (configuration not stated) 14.1 µM [inhibitor, partial curve]
OC12CCCCC1C(c1ccc3c(c1)OCO3)N(Cc1ccccc1F)CC2 (configuration not stated) 4.47 µM [fluorescent, side channel, full curve, poor fit]
O=C(N/N=C/c1cn(-c2ccccc2)nc1-c1ccc(F)cc1)c1ccc2c(c1)OCO2 22.4 µM [inhibitor, single point]
O=C(Nc1cc(Cl)cc(Cl)c1)c1cccc(OC(F)F)c1 15.8 µM [quencher, side channel, partial curve]
Cc1cc(=O)[nH]c(SCC(=O)Nc2nc(-c3ccccc3)cs2)n1 28.2 µM [quencher, side channel, single point]
CCN(CC)C(=O)COc1ccc2oc(C)c(C(=O)OC(C)C)c2c1 39.8 µM [fluorescent, side channel, single point]
O=C(CN1CCCc2ccccc21)N/N=C/c1c(O)ccc2ccccc12 12.6 µM [quencher, side channel, partial curve]
C=CCn1c(SCC(=O)NC(N)=O)nnc1-c1cc2c(s1)CCC(CC)C2 (configuration not stated) 8.91 µM [fluorescent, side channel, partial curve]
CCN(CC)CCOc1ccc(/C(=C(\Cl)c2ccccc2)c2ccccc2)cc1 2 µM [fluorescent, side channel, full curve, poor fit]
CCOC(=O)C1(CCCc2ccccc2)CCN(Cc2cnn(C)c2)CC1 39.8 µM [fluorescent, side channel, single point]
COc1ccc(C2=NOC3(CC(=O)N(c4ccc(F)cc4)C3=O)C2)c(OC)c1 (configuration not stated) 28.2 µM [quencher, side channel, partial curve]
Cc1cccc(C(=O)NC(=S)Nc2ccc3[nH]c(=O)[nH]c3c2)c1 14.1 µM [inhibitor, partial curve]
COc1cccc(NC(=O)c2oc3ccccc3c2NC(=O)C(C)(C)C)c1 3.55 µM [quencher, side channel, full curve, poor fit]
Cc1noc(/C=C/c2cccnc2)c1[N+](=O)[O-] 39.8 µM [inhibitor, single point]
Cc1nc(SCC(=O)O)c2oc3ccccc3c2n1 22.4 µM [inhibitor, single point]
Cn1cc(CCC(=O)NCCCc2ccccc2)c2ccccc21 39.8 µM [fluorescent, side channel, single point]
CC1CCN(C(=O)CCCOc2ccc(Cl)cc2)CC1 2.82 µM [inhibitor, partial curve]
Nc1ccc(C(=O)OCC(=O)Nc2ccc3c(c2)OCO3)cc1[N+](=O)[O-] 39.8 µM [quencher, side channel, single point]
Fc1ccc2c(c1)/C(=N/Nc1ccccn1)CCS2 11.2 µM [quencher, side channel, partial curve]
CCOC(=O)CSc1nc(N)c(C#N)c(CC(C)C)c1C#N 7.08 µM [quencher, side channel, full curve]
CCOc1ccccc1N/C(=N/c1nc(C)cc(C)n1)NC(=O)Nc1ccc(Cl)c(Cl)c1 7.08 µM [inhibitor, full curve, poor fit]
COC(=O)C(C)Oc1ccc2c3c(c(=O)oc2c1)CCCCC3 (configuration not stated) 39.8 µM [inhibitor, single point]
Oc1c(Cl)cc(Cl)cc1CNc1nc2ccccc2[nH]1 20 µM [quencher, partial curve]
O=C(Nc1ccc(Cl)c(Cl)c1)Nc1ccc(Br)cc1F 31.6 µM [quencher, side channel, partial curve]
Cn1c(=O)c(C(=O)COC(=O)c2cc(-c3ccco3)nc3ccccc23)c(N)n(CC2CC2)c1=O 8.91 µM [quencher, side channel, partial curve] and 5.62 µM [quencher, side channel, partial curve]
O=[N+]([O-])c1ccc(COc2ccc(-c3[nH]ncc3-c3ccccc3)c(O)c2)cc1 14.1 µM [quencher, side channel, partial curve]
O=C(Nc1cccc2cccc(NC(=O)c3ccco3)c12)c1ccco1 25.1 µM [quencher, partial curve]
Nc1c(C(=O)NC2CC2)sc2nc3c(c(-c4ccco4)c12)CC/C3=C/c1ccco1 15.8 µM [quencher, side channel, partial curve]
Cn1cc([C@@H]2C[C@H]3CN(Cc4cccc(Cl)c4)C(=O)[C@]34CCCN24)c2ccccc21 15.8 µM [fluorescent, side channel, partial curve]
CN(C)/C=C(\C#N)C(=O)N/N=C/c1ccccc1 0.708 µM [inhibitor, full curve, poor fit]
CCOC(=O)CC(=O)CSc1nc2ccc(OC)cc2cc1C 28.2 µM [inhibitor, partial curve]
C/C(=N\NC(=O)c1nn(C)c(C)c1Br)c1ccc(NC(=O)c2ccccc2F)cc1 2.51 µM [fluorescent, side channel, partial curve]
CN(C)c1nc(OCCNC(=O)COc2ccc(Cl)cc2Cl)nc(N2CCOCC2)n1 3.16 µM [inhibitor, partial curve]
Cc1cc(C)c(S(=O)(=O)ON2C(=O)c3ccccc3C2=O)cc1C 25.1 µM [inhibitor, single point]
CC(C)COP(=O)(c1ccc(N(C)C)cc1)C(O)c1ccc(N(C)C)cc1 (configuration not stated) 7.94 µM [fluorescent, side channel, partial curve]
NS(=O)(=O)c1ccc(CNC(=O)c2cc(-c3cccnc3)nc3ccc(Br)cc23)cc1 39.8 µM [inhibitor, single point]
CC(C)=C1SC(N2CCN(c3ccc(Cl)cc3)CC2)=NC1=O 11.2 µM [fluorescent, side channel, partial curve]
CCOc1ccc2oc(C(=O)NC3CCN(Cc4ccccc4)CC3)c(C)c2c1 28.2 µM [fluorescent, side channel, partial curve]
